Experimental data as given in the supplement of paper PMC3334620.
Over roughly 33,000 sequences, “E-score (-0.5 to 0.5)” has its median near -0.04; the highest 2% begin near 0.36. This is one part of the list.

Molecular target: T1, Hmlalpha2 (UniProt P0CY09)
T1 sequence: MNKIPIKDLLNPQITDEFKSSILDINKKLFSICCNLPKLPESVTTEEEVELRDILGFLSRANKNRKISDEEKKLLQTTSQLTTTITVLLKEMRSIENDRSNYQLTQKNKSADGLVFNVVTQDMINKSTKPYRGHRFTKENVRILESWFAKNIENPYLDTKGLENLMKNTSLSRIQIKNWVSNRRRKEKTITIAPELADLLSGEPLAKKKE
Test: PBM E-score (8-mer binding enrichment) (E-score (-0.5 to 0.5)); higher = stronger / more preferred TF binding; most listed sequences are background and not binding sites
Conditions: protein concentration: 200 nM; construct: GST-full length
Summary of the method: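 Full-length yeast transcription factors or their DNA-binding domains, GST-tagged and expressed with PURExpress, were applied at about 100-200 nM to universal all-10-mer Agilent arrays. These arrays had been made double-stranded by primer extension on fresh or once-stripped slides. Detection used fluorescent anti-GST, normalisation used masliner, and E-scores for ungapped eight-base words pooled with reverse complements came from the Universal PBM Analysis Suite.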

Sequence | PBM E-score
ATTAAAAT | 0.164
ATCCCTGG | -0.157
CGGGACTC | -0.163
GCTTTGGA | 0.0733
AACATCGC | 0.139
AATTGGAT | 0.0519
CAACTCCA | -0.13
AAACACGC | 0.426
GACCTCTA | -0.116
CAAGTAGG | -0.0322
GACGATCA | -0.17
GTCATAAA | 0.0969
ACGTCGCG | 0.15
CTGACTCA | -0.179
CAGTACGC | 0.001
ACTAGATA | 0.14
CAATGTGG | 0.00899
ATAGTTTC | -0.178
ATAAAGTG | 0.0424
CCTAGGAA | -0.125
GATGTCTA | 0.0462
CTGAAGCC | -0.0445
CCTTTACG | 0.223
AATGGAAT | 0.0921
AAGTTATT | 0.24

Sequence | PBM E-score
CAGTCGAA | -0.144
GATCTGAA | -0.205
ACCTTCAT | -0.0921
GGCCATCA | -0.139
ACGCTAAA | 0.11
GGCGAGAC | -0.169
ATTTTGTC | 0.193
CCTTTCCA | -0.192
CGATAACC | -0.144
GCCTCTAA | -0.179
GGTCAGAC | -0.258
ATCCATCA | -0.0947
CAGTGCCC | -0.177
AATACTCC | -0.0353
GAACTAAC | 0.0988
CGTCGGGC | -0.386
CTTATCCC | -0.164
ACTGAGGC | -0.0961
AACTGGAT | -0.0477
AATCTATC | -0.0178
GACCTTTA | 0.0506
GCACGGGA | -0.229
CTGCCCGC | -0.0703
CGGTTATA | -0.0823
GAAGCGTA | -0.0924

Sequence | PBM E-score
GGCCGCGA | -0.243
AGGAATTG | 0.0127
CAGCTGAA | -0.0535
ATCCCGGG | 0.0307
CCGAGTAG | -0.137
ATCTCCGA | -0.0813
CGCACAAC | 0.0906
TCTTCACA | 0.227
ATGAAGCC | 0.0472
ACTGAGTC | -0.0808
CACCTAGC | -0.283
GTGATATA | -0.105
TGTCACAA | 0.196
CTATACCC | -0.164
CTTACCAA | 0.166
ACTAACCT | 0.169
GTACCGCA | 0.0483
AATGAATA | 0.153
CGGACGAG | -0.162
GCCTGTCC | -0.296
CCAACACG | 0.375
GATGCTGA | -0.234
GACGCTAC | 0.0806
ACGGAAAG | -0.0789
ACGACCCC | -0.127

Sequence | PBM E-score
CTACTAGC | 0.0608
GGCCCCCA | -0.323
ACTCAAAC | 0.101
AACAATTG | 0.0127
GGGGGGTA | -0.246
CTCAGCGC | -0.135
GACTTACC | -0.187
ACAACAGT | -0.0464
AACGGCAT | 0.0556
CAGATGAC | -0.022
TCCGCAGA | -0.148
ATCCGCGC | -0.185
AATCTCGG | -0.125
CGTGAGAC | -0.126
GATCAACA | 0.341
CACGAGCA | -0.0152
AAACCTGG | -0.097
AAATCACG | 0.155
CCCTCAGC | -0.344
CCCGCGGC | -0.141
GGCCTCAA | 0.0694
AGCCCCGG | -0.262
CATACATG | 0.382
AGAGGAAG | -0.206
GGGCGCGA | -0.164

Sequence | PBM E-score
CTCCAAGC | -0.132
CAGCCTCC | -0.332
ACTCGCAA | 0.203
ATGTTACG | 0.351
GGGTTTTA | 0.122
ACGCCCGG | -0.193
CTTTACTC | 0.187
AAGTCTTG | -0.0403
CGGGGCTA | -0.0915
ATAAAGTA | 0.14
AAAAGCTA | 0.052
CACCCTCA | -0.229
AGTACCCA | 0.0134
CTGCTCCC | -0.218
TCCTTAAA | -0.088
ATTGCGTA | 0.296
AAGTGGCC | -0.179
AAGTACTA | 0.233
CATCCGCG | 0.0155
ATAGCTAT | -0.127
AATGACGT | 0.0905
TGATCCAA | 0.0278
ACTATACA | 0.213
CGAGGGTA | -0.233
TAATATGA | 0.0958

Sequence | PBM E-score
CGTAATGA | 0.317
ATAAGGAT | 0.0918
ACAGCTTA | 0.0827
CTTGAAGA | -0.124
GCTGGTAA | -0.0507
CGGCATCA | -0.0398
CTCGAGAA | -0.0363
GTAAAACA | 0.344
AGTAGTTA | 0.117
AGTCGGAT | -0.0674
ATGCTAGG | -0.0712
CGCTATGA | 0.0127
CGGCGTCC | -0.0604
ACCGCTAC | -0.134
AGTCGCCC | -0.198
CGAGCCCA | -0.079
AAGTCATT | -0.0479
CAATGAGC | -0.109
TATAAAAA | 0.275
AGAGGTAG | -0.0868
AAGCCTAA | -0.103
CTAGACTC | -0.307
ATGCATGA | 0.177
ATACCGTC | -0.106
CAATTGTG | 0.151

Sequence | PBM E-score
CATGAGCA | 0.00254
AAGTCTCC | -0.0711
CTGATACA | 0.0773
CGACTACG | 0.0352
CGCAGATC | 0.052
AAACTCAT | 0.193
AGCCACAC | -0.0838
TAAACTCA | 0.184
CGGCGCCG | -0.0854
CGAGTCAA | 0.0736
AGACATGC | 0.171
AACTCTCC | -0.112
CGAAACAG | -0.215
TGCGTGAA | 0.257
GCTACCAC | -0.0738
AGGTGCAT | 0.072
CAGCTGTC | -0.127
AAGGGGTA | -0.0636
AACACCGA | 0.193
GTCTTGCA | 0.0355
GCATCACA | 0.18
AGCTCGCC | -0.174
GCATCGAA | -0.157
AATCTACT | 0.098
ATTCGTGG | -0.033

Sequence | PBM E-score
CTGCGGGA | -0.26
GCCTACAC | 0.22
AGACCGTG | 0.194
ACGTGAGC | 0.0336
ACCCAGGG | -0.0987
TAACATCA | 0.338
GAATCCGC | -0.252
TAGGACGA | -0.145
CCGACCGC | -0.276
GTCTGACA | 0.0205
ACGCGTCA | 0.339
ATTTAAGC | 0.109
CGAATCCA | -0.014
TGTATACA | 0.428
GCAGCCTA | -0.0908
GTGCATTA | 0.262
CACATCGG | -0.122
AGCATCTA | -0.0432
GGCACCTA | -0.28
AGAGAATA | -0.00331
AGTCGAGC | -0.233
AGTAATTC | 0.21
AAACATTG | 0.198
TCCCTTCA | -0.169
ACACCCAG | 0.0143

Sequence | PBM E-score
CTATCCAA | -0.17
AATAAGGG | -0.126
AACATCGG | 0.0502
ACGCTACG | 0.0651
GACGTAGC | -0.0226
CTGTCCTC | -0.2
GTATGTGA | 0.199
CGTAAACA | 0.394
ATAGAGCA | 0.04
GTCAGGTA | -0.0231
CATATGTA | 0.356
AGCTGACG | -0.0477
TAGCTTCA | -0.0838
CGACATGA | 0.319
GGACCAAC | 0.0946
AAATGGGC | -0.161
CGAGGTAC | -0.0192
TAGTGATA | -0.00532
CTACTTCC | -0.0725
ATATTCTA | 0.169
CTTCATTA | 0.0939
CAACACCA | 0.207
GGTGATGA | -0.126
GGAGATGA | -0.0226
CGCTACCA | -0.152

Sequence | PBM E-score
AAACGAAC | 0.148
TACGAGCA | -0.00974
CCTTTTCC | -0.249
GTTGCTGA | 0.0934
ACAAACAC | 0.308
GGTCAACA | 0.239
CATCAACC | 0.0266
CATTTTGC | -0.0318
AGGGATAC | 0.0215
AACCAGCG | -0.185
GTTCATGA | -0.0103
CTCAATAC | 0.241
AGCGCATG | -0.0303
CATTAGCG | -0.22
ATGCTCAG | -0.00397
AGCAGAAA | 0.0454
AGAGATGA | -0.146
GATTCCTA | -0.0294
AACCCAAC | 0.0182
ACTAGAAA | -0.0256
TAGTCCCA | -0.18
ATGAAGCA | 0.104
ACTTTGAC | 0.231
CGCATGGC | -0.0395
GAAAGACA | 0.0253

Sequence | PBM E-score
CGGCAATC | -0.158
GATGACGC | -0.0678
AGTATTTG | 0.116
AGAGCAAC | -0.0126
ATTGCGGG | -0.0686
AACGTTAT | 0.248
ACGTAACT | 0.0826
CCGGATCG | -0.176
ACATACCA | 0.227
CTCATTCC | -0.195
GGTCGGGA | -0.122
CGTTCTGA | -0.0682
GCAGTTCA | -0.1
CAGGTTTC | -0.0759
AGAACTCG | -0.0182
CCGGGTTA | -0.151
AGCGCTAT | 0.105
AAGACCGA | -0.0337
GTGTGCCA | -0.0612
AAGCGCTC | -0.125
CTGTGAGA | -0.108
ATTCCTAC | 0.0421
ATTATCCG | 0.0567
AAGTCAAT | 0.0827
AGTCACGA | 0.0156

Sequence | PBM E-score
CGTTACTA | 0.129
CTCTCACA | -0.00636
CCGGAGGC | -0.306
GAGACTTA | -0.038
AGACATCC | -0.192
AGCCATAA | -0.0349
AAGCGTAA | 0.152
CTCCATGA | -0.0886
GACATATA | 0.163
TCAAACGA | 0.11
AGGCCCCT | -0.196
ATTCATTC | 0.0937
CATTTTAC | 0.303
CACGGACA | 0.0886
TACTGCGA | -0.05
AGTGAGGC | -0.165
CCACCCAC | -0.141
GCCTGCTA | -0.128
AGCACGAA | 0.167
CTTATGCA | 0.135
GTAAGTAC | 0.234
CTTCGGCA | -0.198
AGGTTCTC | -0.144
AGATTACC | 0.0994
ACCAAATC | -0.143

Sequence | PBM E-score
CCTCCCAC | -0.13
TAATGGTA | 0.0468
TAATTGCA | 0.199
GTCTTGTA | 0.306
ATCTGGCC | -0.263
ATACCGCC | -0.111
GTCTAGAC | -0.272
CCCCAAGA | -0.00112
ACGAGTTA | 0.184
GCAGCTTA | 0.046
CGCTATTC | 0.125
ATTGTATG | 0.0486
CAGCCGTC | -0.132
AATGCCTC | 0.0341
TAGTAACA | 0.272
AAATTGTA | 0.0866
ACTTCTGA | -0.149
ATAAACCC | 0.0016
CAAACAAC | 0.305
GTAAGCTA | 0.115
ACTACCTC | -0.035
ACGACCTG | -0.0201
CCCACACA | -0.234
AAGTGAGC | -0.0663
TAAGCCGA | -0.0599

Sequence | PBM E-score
GGGGATGA | -0.36
ACTTACCC | 0.035
GACAACGC | 0.125
AAGAATCG | 0.134
CCTGATGA | -0.0972
ACTTCGTA | 0.0376
AGCGTCAG | -0.0948
CTCTTTGA | -0.0927
ACCTCGCG | -0.158
ATCAATTG | 0.0949
GCCACCCA | -0.175
ATGAAGGA | 0.241
AACTCCTT | 0.0825
GAGTCATC | -0.24
CTGGATGC | -0.316
CCGTTGCA | -0.125
CAATTGAA | -0.102
GTTATGAA | 0.186
ACGTGCAG | 0.0703
